Test results published in patent US11285169B2, “Methods for modulating chemotherapeutic cytotoxicity” (The United States of America, as represented by the …, priority 2013, dated 2022).

What was measured:
[1] = tested on: CD47 deficient (CD47 KO) Jurkat T cells; conditions: for AC50: read-out: AC50 (μM) CD47 KO, cell viability
WT Jurkat cells = conditions: for AC50: read-out: AC50 (μM) WT
[2] = CD47 KO Jurkat T cells, 48 hours, 10^-9 to 10^-4 M, CellTiter-Glo
[3] = WT Jurkat cells, 48 hours, 10^-9 to 10^-4 M, CellTiter-Glo
[4] = CD47 KO Jurkat T cells, 48 hours
[5] = difference CD47 KO minus WT Jurkat cells, 48 hours

| Structure (SMILES) | Maximal Response CD47 KO (RLU) [1, 2] [RLU] | Maximal Response WT (RLU) (WT Jurkat cells; [3]) | further results |
| --- | --- | --- | --- |
| COc1cc([C@@H]2c3cc4c(cc3[C@@H](O[C@@H]3O[C@@H]5CO[C@@H](C)O[C@H]5[C@H](O)[C@H]3O)[C@H]3COC(=O)[C@H]23)OCO4)cc(OC)c1O [Etoposide] | 69.938 | 10.441 |  |
| CCN(CC)CCOc1ccc(Nc2ncc3cc(-c4c(Cl)cccc4Cl)c(=O)n(C)c3n2)cc1 [PD-166285] |  |  | Δ LogAC50 CD47KO-WT ([1]; log AC50 difference CD47 KO minus WT): 0.9; AC50 [1, 4]: 4.69 µM; AC50 (WT Jurkat cells; WT Jurkat cells, cell viability, 48 hours): 0.59 µM |
| COc1cc2cc(c1Cl)N(C)C(=O)C[C@H](OC(=O)C(C)C)[C@]1(C)O[C@@H]1[C@H](C)[C@@H]1C[C@@](O)(NC(=O)O1)[C@H](OC)/C=C/C=C(\C)C2 [Ansamitocin P3] |  |  | Maximal Response CD47 KO (RLU) [1]: 32.337 RLU; Δ Maximal Response CD47KO-WT [1]: 26.605; Maximal Response WT (RLU) (WT Jurkat cells): 5.732 RLU |
| C[C@H](Cc1ccc(O)c(O)c1)[C@@H](C)Cc1ccc(O)c(O)c1 [Masoprocol] | 31.706 | 3.946 |  |
| CC(C)(Cc1ccc2ccccc2c1)NC[C@@H](O)COc1cccc(Cl)c1C#N [SB262470 NPS-2143] | 97.874 | 19.594 | Δ Maximal Response CD47KO-WT [1, 5]: 78.28 |
| CCOC(=O)[C@@H](N)CCC(=O)N[C@@H](CSCc1ccccc1)C(=O)N[C@@H](C(=O)OCC)c1ccccc1 [Ezatiostat] | 113.889 | 68.407 | Δ Maximal Response CD47KO-WT [1, 5]: 45.482 |
| COc1cc2nccc(Oc3ccc(NC(=O)Nc4cc(C)on4)c(Cl)c3)c2cc1OC [Tivozanib] | 30.389 | 8.955 |  |
| CC(C)c1ccc2c(c1)c(SC(C)(C)C)c(CC(C)(C)C(=O)O)n2Cc1ccc(Cl)cc1 [MK-886] | 40.805 | 13.757 | Δ Maximal Response CD47KO-WT [1, 5]: 27.048 |
| CC(C)[C@H](N)C(=O)OCCOCn1cnc2c(=O)[nH]c(N)nc21 [Valaciclovir] | 73.063 | 45.639 |  |
| CC(C)(C)c1cnc(CSc2cnc(NC(=O)C3CCNCC3)s2)o1 [SNS-032] | 34.22 | 0.946 |  |
| COCCCC/C(=N\OCCN)c1ccc(C(F)(F)F)cc1 [Fluvoxamine maleate] | 34.845 | 0.209 |  |
| CC(C)c1c(C(=O)Nc2ccccc2)c(-c2ccccc2)c(-c2ccc(F)cc2)n1CC[C@@H](O)C[C@@H](O)CC(=O)[O-].CC(C)c1c(C(=O)Nc2ccccc2)c(-c2ccccc2)c(-c2ccc(F)cc2)n1CC[C@@H](O)C[C@@H](O)CC(=O)[O-].[Ca+2] [Atorvastatin calcium] | 57.007 | 34.989 | Δ Maximal Response CD47KO-WT [1, 5]: 22.018 |
| CCCn1c(=O)c2[nH]c(C34CC5CC(CC3C5)C4)nc2n(CCC)c1=O [Rolofylline] | 84.234 | 61.315 |  |
| CN(c1ccccc1CNc1nc(Nc2ccc3c(c2)CC(=O)N3)ncc1C(F)(F)F)S(C)(=O)=O [PF-431396] | 40.108 | 5.036 | Δ Maximal Response CD47KO-WT [1, 5]: 35.072 |
| CC#C[C@]1(O)CC[C@H]2[C@@H]3CCC4=CC(=O)CCC4=C3[C@@H](c3ccc(N(C)C)cc3)C[C@@]21C [Mifepristone] | 38.548 | 7.203 |  |
| CC(/C=C/C(=O)NO)=C\[C@@H](C)C(=O)c1ccc(N(C)C)cc1 [Trichostatin A] |  |  | Δ LogAC50 CD47KO-WT [1]: 0.5; AC50 [1, 4]: 0.662 µM; AC50 (WT Jurkat cells): 0.209 µM |
| CCC[C@H](Nc1nc(-c2ccc(NC(=O)NCC)c(OC)c2)ncc1C)c1cccnc1 [Lexibulin hydrochloride] | 46.894 | 13.896 |  |
| Oc1ccc(C2CNCCc3c2cc(O)c(O)c3Cl)cc1 (centres unmarked) [Fenoldopam] | 93.129 | 61.271 |  |

Where a name gives a salt, the structure may show the parent alone. Read-outs that look alike come from different tables or passages of the source.
